Results reported in article PMC12136788.
Some of the results follow.

T1: UNK ZnF1-3 (human, UniProt Q9C0B0 31-174)
T1 sequence: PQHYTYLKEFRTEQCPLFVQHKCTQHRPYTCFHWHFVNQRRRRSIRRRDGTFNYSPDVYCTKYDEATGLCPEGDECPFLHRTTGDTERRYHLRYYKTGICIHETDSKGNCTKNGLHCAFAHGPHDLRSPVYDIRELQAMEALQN

B1: chr4:25749455:25749456:-_ENSG00000091490_ENST00000264868|hu_hu|hu_hu_hu_mus_False|38_38 (ssRNA)
RNA: GGGAGUUCUACAGUCCGACGAUCGCACUAUGACCUCUAGAAAAAUCCACAGGGGGAAAAAAUGUAAACCAAUGUACAAUGUUAUCGCCUUCCCUGUAUUUCCAGGCUUUGUCUCAAGGCUCCUUCUAGCUGCUGGAUUUGGGACAACAGAGGAUUGAGCAUCA
B2: 155408821_155429669_5543_CDS_ENSG00000116539_ENST00000392403|human|control|control (ssRNA)
RNA: GGGAGUUCUACAGUCCGACGAUCAGCAACUAAUCUUGGACUUCGAGAGGGAACUCCGUUUACUGUUGAAGAAGUACUCUCAGAUGAAGACCUUUUCCGGGUAGGGCUACAAUUUGUGCUCUCUGAUGGCCGCUGGGAGGGUUUCAACAGAGGAUUGAGCAUCA
B3: chr2:232320318:232320319:-_ENSG00000115053_ENST00000322723|hu_hu|motif|central (ssRNA)
RNA: GGGAGUUCUACAGUCCGACGAUCACUGUUGAAGUCUACAAAACCAAACCCUUUGGAGGACCCAGUUUCCCGGUCAGUAACGGUCCUUGCCCGAACGGAGCCGUCAAAUGACUCCUUUAAUGUCUCUUCAGUGGUAUCCUCAGACAACAGAGGAUUGAGCAUCA
B4: chr19:10058675:10058676:+_ENSMUSG00000024661_ENSMUST00000025563|mus_hu|FALSE|FALSE (ssRNA)
RNA: GGGAGUUCUACAGUCCGACGAUCUGGUGAAGAAAGUAUUUGGCAAAGUUCUUCAAAGCCACAUCAUCGCGGUCAAAGUAGUAAGACUGCGAGGUGGACGCGGUCGUCAUGGCGGCGACUAAGGAGAGGCGGCGGCGGCGGCGGCAACAGAGGAUUGAGCAUCA
B5: chr1:193065829:193065830:-_ENSG00000023572_ENST00000367439|hu_mus|FALSE|FALSE (ssRNA)
RNA: GGGAGUUCUACAGUCCGACGAUCUUUUUUUAAAUAACACUGAUGAACCAGAGGCAGCAAUUUCCCUUCUUUGUGAAGCCUGUGAGUGUCCGCUGCGCCUCCAAUAAAUCGUCCAUUGACAAAUAUCCUGGGAACGGUUCUUUCCAACAGAGGAUUGAGCAUCA
B6: chr16:87451109:87451110:-_ENSG00000140948_ENST00000268616|hu_mus|motif|central (ssRNA)
RNA: GGGAGUUCUACAGUCCGACGAUCCUUCUCCAUGGUGAGCUGUUUAAAGACAGGGUAAUACUUGUGCAAGCGCAGCUUCCGGAGCCAGUCUAAAAUCCCAUUCUGCUCCUGGGGCUGAGGGGUCUGCAGACUGGAGGGCAUAAGCAACAGAGGAUUGAGCAUCA
B7: chr2:29016751:29016752:+_ENSG00000213639_ENST00000296122|perfect_dup|motif|central (ssRNA)
RNA: GGGAGUUCUACAGUCCGACGAUCUUUAGCAAAAAAUUCAUAUCCGUCUUCCACCACCUGAUGAGCUCGACAAAUCAAGUCGGAAUCAUGACGAUUCAGAAAUUUACUGACUACAUCAGCUCCAAAAGUAAAAGAAACACCACGCAACAGAGGAUUGAGCAUCA
B8: chr7:56126341:56126342:+_ENSG00000146731_ENST00000540286|hu_mus|motif|central (ssRNA)
RNA: GGGAGUUCUACAGUCCGACGAUCCAUGUUUCUCCUCUUGGCUCUGCGCAGAGCUACGAUCCCUUCUUUCGCAAGGGCAUCGGAGGAAAAGGGGUCAAUCCCCUUUUGAUUAAUAACGACAAAUCCUUUAUCUGAGUCACCACACAACAGAGGAUUGAGCAUCA
B9: chr18:9859796:9859797:+_ENSG00000168461_ENST00000578921|hu_hu|FALSE|FALSE (ssRNA)
RNA: GGGAGUUCUACAGUCCGACGAUCCAUUGACACUUCUCUGAUUUCCUCCAAAAAGUAAUAAAUAAAGGCUUACUUCCAAAGCUAGCUAAAAACUAACCUCCUGAACUAAAUUUGCCUUUCAGUGAAGGUUGGUUAGGUAACAAACAACAGAGGAUUGAGCAUCA
B10: chr16:1877921:1877922:+_ENSG00000180185_ENST00000427358|hu_mus|motif|central (ssRNA)
RNA: GGGAGUUCUACAGUCCGACGAUCUUUCAUUAUUAGUGUCAUUUAUUUCCCUUGCUUCUGUCUCCCUUCCCCUUUGGCACUCGGCUCUCAGUAUUCUGAUCUUUUCACCUUGAACCUCAUACUAACCACCCCAUCUAUGCCGGCCAACAGAGGAUUGAGCAUCA
B11: chr2:202488911:202488912:-_ENSG00000155755_ENST00000286196|hu_hu|motif|central (ssRNA)
RNA: GGGAGUUCUACAGUCCGACGAUCUUUUAACAUUUUUCAUAAUAUUGAGAGAUGUUUCAGUAUUAUAUAAUCAAAAAAUCGGUUACAAAUACACAUGUAUACAUCUUAUAAAAAUACAUUUAAAAACAAAAAUGGGACAAAUACCAACAGAGGAUUGAGCAUCA
B12: chr9:58049234:58049235:-_ENSMUSG00000051243_ENSMUST00000163200|mus_mus|FALSE|FALSE (ssRNA)
RNA: GGGAGUUCUACAGUCCGACGAUCGCUGUGGCGGUGGGGAGAAAGGGGGAGUGCAUUGAAAGAACUCCCCUUGGCCCCAAAGUCCUACUUCAAUUUUUUUCUUUCCUUAUCUGUUCGCCCUACUUCUCCAGGAUUGCAGGUUUGCAACAGAGGAUUGAGCAUCA
B13: chr5:116376479:116376480:+_ENSMUSG00000029516_ENSMUST00000051704|mus_hu|FALSE|FALSE (ssRNA)
RNA: GGGAGUUCUACAGUCCGACGAUCCUGCUCCAGGAGGGAUCUCUGAGUCUCAGAGGCCUUCAGCUCCACCUCCUUCUGACUAAGCACAGCCUCCACCUCUGACACUCUCCGAUGUAACCGGGUCAUUUCCUGCUCCAUCUUGUGCAACAGAGGAUUGAGCAUCA
B14: chr2:9570881:9570882:+_ENSG00000119203_ENST00000238112|hu_mus|hu_hu_hu_mus_False|88_88 (ssRNA)
RNA: GGGAGUUCUACAGUCCGACGAUCACUUGUCUUCUGAAGGAACCAGGGCAGAGCUCCACAGUGAUCCAAAUGGAAAUGACUGAUCAACAGAAGGUCGAUCUCAGCUGGGUCGAUAAGGUCAAUGUAAGGAAGGGCAUCCAUUCCCAACAGAGGAUUGAGCAUCA
B15: chr2:148695906:148695907:-_ENSG00000115947_ENST00000542387|hu_hu|FALSE|FALSE (ssRNA)
RNA: GGGAGUUCUACAGUCCGACGAUCGACCAUUUGAAAAUUAAAUGGCUCUUCCUCAUAGAUGUCAUUUAAAUGUUUCAUUGCUAUUAUAAGACAGAUUUCCAAGACUGAUAGACCAUGUACAAUAUUUGCUUUCGAGUCCAUGCUCAACAGAGGAUUGAGCAUCA
B16: 48278469_48278589_1400_CDS_ENSMUSG00000038143_ENSMUST00000110367|mouse|control|control (ssRNA)
RNA: GGGAGUUCUACAGUCCGACGAUCCAUGGGGAAAUGGGACUCGAUCACGUUCGUGUUGCUAUGCAUGAUGAAGUUGUCCCCUUUGUGUUCAAUGAUGAAGCAGCCCUCUCUGGGGGCCCUGGUUAGAGGGUCGCAAAAUUCAUACAACAGAGGAUUGAGCAUCA
B17: chr1:46159212:46159213:+_ENSG00000159596_ENST00000372025|hu_mus|hu_hu_hu_mus_True|1_68 (ssRNA)
RNA: GGGAGUUCUACAGUCCGACGAUCUCUGAUCCCUCCCAAGAAAGCUAGGAAACCGGCUCCAUAAGCCAUCUGAGUAAAAGCUAGGACGGGGAUAUAAGACUUUGUUAUUACCAUGAGAAGUGGGGGAGCAGUAAAGGGGAUUAGCAACAGAGGAUUGAGCAUCA
B18: chr10:1038518:1038519:+_ENSG00000107937_ENST00000545048|hu_hu|hu_hu_hu_mus_False|28_48 (ssRNA)
RNA: GGGAGUUCUACAGUCCGACGAUCCAGUCUGUCAUGGUAAUUCUGUUGAGUAAAUUUGACUUUUCUCAUAUAAAAAUGUCGAAUCCGAUGUAUUUGGUAAUGUUUAUGAAUAACGGUUGGAGUCUUUCGUUGAGUCUUGGAUAACAACAGAGGAUUGAGCAUCA
B19: 145604450_145604570_2147_3pUTR_ENSMUSG00000018199_ENSMUST00000159879|mouse|control|control (ssRNA)
RNA: GGGAGUUCUACAGUCCGACGAUCCUCAGAGUAUUUGGACAUUAUUAAAACUGUCGUUUUCCAAUGAAGACAUUUAAGAAAAGAAACACUUCUCAUACAAGUGACAUGAUGUGAGGCUACUUAUACUCUGUAUCACACUUUCAGCAACAGAGGAUUGAGCAUCA
B20: chr7:140404665:140404666:+_ENSG00000090266_ENST00000247866|hu_hu|hu_hu_hu_mus_False|58_88 (ssRNA)
RNA: GGGAGUUCUACAGUCCGACGAUCUGCUCCUACUCGUCCAGAGAGUUUACACCUUCAGUCCUCGUCAUCAGGAGGGAUACCUAAUUCUUCAUCUGUCCACUGUGAAGGAUCUGGAUAUGAAAAGUGACCCAGCACAGCAUCCGACAACAGAGGAUUGAGCAUCA
B21: chr7:141445308:141445309:+_ENSG00000106028_ENST00000265304|hu_hu|hu_hu_hu_mus_False|28_58 (ssRNA)
RNA: GGGAGUUCUACAGUCCGACGAUCUAUGAUUGUUGUUGCUUGCCGCCUCACAUUGUUUUUAUCCAUGUACUCGCCAUAGUCUAUUUUCCCUUCCACAAAUAUACGAGACCCCUUUUUCACAUACUGAUAUGCCACAUCUCUGAGCAACAGAGGAUUGAGCAUCA
B22: chr4:140556289:140556290:+_ENSMUSG00000036622_ENSMUST00000037055|mus_mus|mus_mus_mus_hu_False|68_68 (ssRNA)
RNA: GGGAGUUCUACAGUCCGACGAUCGAUGGAGCUCACCAGGCCCCCUUUUGCCGUGCAGAACCCUGUGCGAGUCACCACUGCCAGGACGUGCGGUCCCACAUAGGCCCGGGCCUGCAAGAUGAGGGUCCCGCAGAAGAGUGUGUGCAACAGAGGAUUGAGCAUCA

Biological target: T1, UNK ZnF1-3
Assay: nsRBNS (natural sequence RNA bind-n-seq); RBNS binding buffer (assumed for nsRBNS): 25 mM Tris pH 7.5, 150 mM KCl, 3 mM MgCl2, 0.01% Triton X-100, 500 ug/ml BSA, 20 U/ml SUPERase-In, 4 C; UNK is unkempt and MSI1 is Musashi-1; names of the RNAs are library labels; protein concentration not given here; high values mean tight binding

| Binder | binding signal [enrichment R] |
| --- | --- |
| B1 | 1.09 |
| B2 | 1.11 |
| B3 | 0.863 |
| B4 | 0.843 |
| B5 | 0.794 |
| B6 | 1.37 |
| B7 | 1.36 |
| B8 | 0.805 |
| B9 | 1.02 |
| B10 | 0.795 |
| B11 | 0.785 |
| B12 | 1.03 |
| B13 | 0.684 |
| B14 | 1.28 |
| B15 | 0.9 |
| B16 | 0.647 |
| B17 | 1.28 |
| B18 | 0.747 |
| B19 | 0.708 |
| B20 | 1.15 |
| B21 | 0.627 |
| B22 | 1.19 |
